Experimental data published in patent US20230053563A1.

Molecular target: OT-I TCR (mouse)
Experiment: cell-based or functional assay
Conditions: scale: orders of magnitude higher potency than T5-IL2M6

potency in inducing STAT5 phosphorylation in gated CD8+ T cells of OT-I splenocytes, against T5-IL2M6: 2
B1: T4-IL2M6 (Fc fusion)
chain: SIINFEKLGCGGSGGGGSGGGGSIQKTPQIQVYSRHPPENGKPNILNCYVTQFHPPHIEIQMLKNGKKIPKVEMSDMSFSKDWSFYILAHTEFTPTETDTYACRVKHASMAEPKTVYWDRDMGGGGSGGGGSGGGGSGGGGSGPHSLRYFVTAVSRPGLGEPRYMEVGYVDDTEFVRFDSDAENPRYEPRARWMEQEGPEYWERETQKAKGNEQSFRVDLRTLLGCYNQSKGGSHTIQVISGCEVGSDGRLLRGYQQYAYDGCDYIALNEDLKTWTAADMAALITKHKWEQAGEAERLRAYLEGTCVEWLRRYLKNGNATLLRTDSPKAHVTHHSRPEDKVTLRCWALGFYPADITLTWQLNGEELIQDMELVETRPAGDGTFQKWASVVVPLGKEQYYTCHVYHQGLPEPLTLRWEPPPSTVSNMAGGGGSGGGGSGGGGSGGGGSESKYGPPCPPCPAPPVAGPSVFLFPPKPKDTLMISRTPEVTCVVVDVSQEDPEVQFNWYVDGVEVHNAKTKPREEQFNSTYRVVSVLTVLHQDWLNGKEYKCKVSNKGLPSSIEKTISKAKGQPREPQVYTLPPSQEEMTKNQVSLTCLVKGFYPSDIAVEWESNGQPENNYKTTPPVLDSDGSFFLYSRLTVDKSRWQEGNVFSCSVMHEALHNHYTQKSLSLSLGKGGGGSGGGGSGGGGS[sequence of about 150 residues omitted]
